In all, about 370,000 compounds went through this assay and about 150 (0.041%) were called active. This list was built around the results that the source calls inconclusive (neither active nor inactive); the mix of calls is not that of the screen. Calls follow the shape of the dose curve; as a rule, active = well fitted inhibition curve with a large enough effect; inconclusive = small, poorly fitted or top-dose-only effect; inactive = flat fitted curve, though single readings scatter. No potency is given beside an inconclusive call; the fits are too rough.
The compounds below were run against Beta-lactamase (Escherichia coli (strain K12)) (UniProt P00811) (assay: qHTS Inhibitors of AmpC Beta-Lactamase (assay with detergent)). Settings: AmpC hydrolysis of nitrocefin, absorbance 480 nm, 0.01% Triton; activity change, negative = inhibition: at 114 µM (top of the series).
UniProt P00811, sequence (P00811 whole entry, looked up): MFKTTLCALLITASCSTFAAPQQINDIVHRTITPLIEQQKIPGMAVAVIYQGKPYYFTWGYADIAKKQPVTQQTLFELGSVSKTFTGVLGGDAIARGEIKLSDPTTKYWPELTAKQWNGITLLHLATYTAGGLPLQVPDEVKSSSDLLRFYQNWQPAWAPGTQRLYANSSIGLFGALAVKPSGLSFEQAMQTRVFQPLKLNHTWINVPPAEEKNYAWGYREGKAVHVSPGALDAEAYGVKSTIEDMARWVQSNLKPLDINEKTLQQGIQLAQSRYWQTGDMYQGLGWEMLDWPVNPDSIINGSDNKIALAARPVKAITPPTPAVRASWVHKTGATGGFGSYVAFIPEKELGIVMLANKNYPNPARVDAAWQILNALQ
In short: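 AmpC (5.3 nM in the dispensed reagent) in 20 mM phosphate pH 7.0 with 0.01% (detergent screen) or 0.0001% Triton X-100 was preincubated with compounds for 15 min at room temperature. Nitrocefin was then added from an 800 uM solution, and hydrolysis was followed at 480 nm.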
Also: nearly all actives have a fitted effect of over 25% in size.
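For activity change, negative = inhibition in this document: 0% = no-compound wells and -100% = no-enzyme wells.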
Potency is read from the fitted curve at half-maximal effect; tags tell the direction and shape of the fitted curve.

SMILES | Potency | activity change, negative = inhibition
Cc1cc(C)n(-c2cc(C(C)(C)C)nc3c(-c4ccc(Cl)cc4)cnn23)n1 | inconclusive [inhibitor, partial curve] | –
Cc1nc2ccccn2c1C(=O)CSc1cccc(Cl)c1 | inconclusive [inhibitor, full curve, poor fit] | –
O=C(NCCNC(=O)c1ccccc1O)c1ccccc1O | inconclusive [inhibitor, full curve, poor fit] | –
COc1cccc(NC(=O)C2=C(C)C(=O)OC23CCN(C(C)=O)CC3)c1 | – | inactive: -3.18%
COc1cccc(CN(C)C(=O)CCN(c2ccccc2)S(=O)(=O)c2ccc(C)cc2)c1OC | – | inactive: -6.93%
CN(C)c1ccc(CNc2ccccn2)cc1 | – | inactive: -17.9%
O=C(/C=C/c1ccccc1[N+](=O)[O-])NC1CCCC1 | inconclusive [inhibitor, single point] | –
COc1cc(CN2CCN(Cc3ccc(C(F)(F)F)cc3)CC2)cc(OC)c1OC | inconclusive [inhibitor, partial curve, poor fit] | –
Cn1c(=O)oc2cc(S(=O)(=O)N3CCN(c4ccccn4)CC3)ccc21 | inconclusive [inhibitor, full curve] | –
Cc1cc2c(s1)c1c(C)nn(Cc3ccccc3F)c(=O)c1n2C | – | inactive: -7.79%
CCOC(=O)c1cccc(NC(=O)CC2C(=O)N(c3ccc(OC)cc3)C(=O)N2C2CCCC2)c1 (centres undefined) | – | inactive: 1.18%
O=C(Nc1ccc(N2CCCCC2)c(Cl)c1)c1cccnc1 | inconclusive [inhibitor, full curve, poor fit] | –
C#CCOC(=O)CCC(=O)Nc1cc(OC)nc(OC)n1 | inconclusive [inhibitor, single point] | –
N#C/C(=C\c1cccc(OC(=O)c2cccs2)c1)C(N)=O | inconclusive [inhibitor, partial curve] | –
Cc1ccc(N=C(NOCc2ccc(Cl)cc2Cl)c2nonc2N)c(C)c1 | inconclusive [inhibitor, full curve, poor fit] | –
Cc1ccccc1NC(=O)CON=C(N)c1ccccc1 | inconclusive [inhibitor, partial curve, poor fit] | –
O=C(CC(Cc1ccccc1)C(=O)O)NCCc1ccc2c(c1)OCO2 (centres undefined) | inconclusive [inhibitor, full curve] | –
Cc1cc(C)cc(N2C(=O)C3CCCN3C2=S)c1 (centres undefined) | inconclusive [inhibitor, single point] | –
COc1ccccc1NC(=O)CCN1CCCCC1 | – | inactive: 10.4%
CN1C2CCC1CC(OC(=O)CCN1CCCC1)C2 (centres undefined) | inconclusive [inhibitor, single point] | –
COc1ccc(CCNC(=O)C2CCCN(S(=O)(=O)c3cc(C)ccc3OC)C2)cc1OC (centres undefined) | – | inactive: -8.7%
Cc1cccc(N(CC(=O)NCc2ccccc2)C(=O)Cn2nnc(-c3ccc(C)o3)n2)c1 | – | inactive: -17.6%
CC(=O)c1ccc(NC(=O)CCCSc2nc(-c3ccco3)cc(C(F)(F)F)n2)cc1 | – | inactive: 2.66%
Cc1ccc(-n2nc3c(=O)n(C(C)C(=O)NCCCc4ccccc4)nc(C)c3c2C)cc1 (centres undefined) | – | inactive: -3.59%
Cc1ccccc1-n1c(Cn2c(=O)sc3ccccc32)nnc1SCC(=O)N1CCCC1 | – | inactive: -7.44%

SMILES | Potency | activity change, negative = inhibition
CSCc1nc2sc(C(=O)Nc3nc(C)cs3)c(C)c2c(=O)[nH]1 | – | inactive: -2.68%
C=CCNc1nc(C2(C)CC3(CC(C)(C)OC3=O)C(=O)O2)cs1 (centres undefined) | inconclusive [inhibitor, partial curve, poor fit] | –
CC(/C=N/NC(=O)c1cc(-c2ccc(C)s2)[nH]n1)=C\c1ccccc1 | – | inactive: -5.33%
Cc1ccc(OCCCCn2cnc3ccccc32)c(C)c1 | inconclusive [inhibitor, single point] | –
Oc1ccc(NCc2ccccc2OCc2ccccc2F)cc1 | inconclusive [inhibitor, partial curve] | –
CCOc1ccc(CCNC(=O)COC(=O)COc2ccc(C(C)=O)cc2)cc1OCC | inconclusive [inhibitor, full curve] | –
CCc1ccc(C(=O)NNC(=O)c2c(CC)noc2C)cc1 | inconclusive [inhibitor, full curve] | –
FC(F)(F)c1ccc(CN2C[C@@H]3C(c4ccc(Cl)nc4)C4(c5cccnc5)CC3(C4)[C@H]2c2ccccc2)cc1 (some centres undefined) | – | inactive: -1.96%
Clc1cccc(CN2CCCCCC2)c1 | inconclusive [inhibitor, full curve, poor fit] | –
Nc1n[nH]c2cc(=O)n(-c3cccc(C(F)(F)F)c3)nc12 | – | inactive: 5.47%
Cc1ccc(C(=O)N/C(=C\c2cccs2)C(=O)NCCCn2ccnc2)cc1 | inconclusive [inhibitor, full curve, poor fit] | –
CS(=O)(=O)N(Cc1nc(-c2ccc(F)cc2)no1)c1ccccc1Cl | inconclusive [inhibitor, single point] | –
O=C1/C(=C\Nc2ccc(Cl)cc2)CCN1c1ncccn1 | – | inactive: -2.07%
CN1CCSc2ccc(C(=O)NCc3cccc(F)c3)cc21 | – | inactive: -10.4%
Cc1ccc(NC(=O)CCSc2nc(-c3ccco3)cc(C(F)(F)F)n2)cc1F | – | inactive: 26.6%
COc1ccccc1NC(=O)Cc1csc(N)n1 | inconclusive [inhibitor, full curve] | –
CC(C)[C@H](N)c1nnc(SCc2ccc(Cl)cc2)o1 | inconclusive [inhibitor, full curve, poor fit] | –
Cc1ccn2c(=O)c(C(=O)NCCCN3CCCCC3C)c(O)nc2c1 (centres undefined) | inconclusive [inhibitor, single point] | –
O=C(NCC1CCCO1)C1CCCN(Cc2cnn(-c3ccccc3)c2-n2cccc2)C1 (centres undefined) | inconclusive [inhibitor, full curve, poor fit] | –
COC(=O)C1=C(C)N(C)C(=O)NC1c1c(OC)ccc2ccccc12 (centres undefined) | – | inactive: -8.02%
COc1cc2c(cc1OC)C(c1ccccc1C)CC(=O)N2 (centres undefined) | inconclusive [inhibitor, full curve, poor fit] | –
Cc1ccc2oc(=O)c3cnn(CC(=O)NC4CCC(C)CC4)c3c2c1 (centres undefined) | inconclusive [inhibitor, full curve, poor fit] | –
O=C(CCC1CCCCC1)Nc1cc(C(F)(F)F)ccc1N1CCOCC1 | inconclusive [inhibitor, full curve, poor fit] | –
Cc1cc(NC(=O)CS(=O)(=O)c2cn(Cc3ccc(F)cc3)c3ccccc23)no1 | inconclusive [inhibitor, full curve, poor fit] | –
O=C(NCc1cn2ccccc2n1)c1ccccc1 | inconclusive [inhibitor, partial curve, poor fit] | –

SMILES | Potency | activity change, negative = inhibition
COc1cc(/C=N/NC(=O)C(N)=O)ccc1OC(=O)c1cccs1 | – | inactive: 3.64%
COc1cc(NC(=O)CCCC(=O)OCC(F)(F)C(F)F)nc(OC)n1 | – | inactive: -8.73%
COCCCNC(=S)Nc1ccc(C)cc1 | – | inactive: 4.77%
CCOc1ccccc1N1CCN(C(=O)c2csc(C)c2CC)CC1 | inconclusive [inhibitor, full curve, poor fit] | –
O=[N+]([O-])c1ccccc1NC(=S)N/N=C/c1ccc(O)c(O)c1 | – | inactive: -1.68%
Cc1ccc([C@@H]2CC=C(C(=O)O)[C@H](c3ccccc3)N2S(=O)(=O)c2ccc(C)cc2)cc1 | inconclusive [inhibitor, single point] | –
CCS(=O)(=O)C1=NN2C(=N)/C(=C\c3ccc(OS(=O)(=O)c4ccccc4)cc3)C(=O)N=C2S1 | – | inactive: 1.74%
COc1ccc(OCC(O)CN(C)C(=O)/C=C/c2cccc([N+](=O)[O-])c2)cc1 (centres undefined) | inconclusive [inhibitor, single point] | –
CC(=O)Nc1ccccc1-c1ccc(C)o1 | – | inactive: -16.2%
Cc1ccc(C)c(NC(=O)c2c(Cl)nc3ccccn23)c1 | – | inactive: 2.41%
NC(N)=N/N=C/c1ccc(N(c2ccccc2)c2ccccc2)cc1 | – | inactive: 0.559%
Nc1cc(Cl)nc(N/N=C/c2ccccc2[N+](=O)[O-])n1 | – | inactive: -7.94%
CN(C)S(=O)(=O)c1ccc(N2CCCC2)c(C(=O)OCC(=O)N2CCN(c3ccccc3)CC2)c1 | inconclusive [inhibitor, full curve, poor fit] | –
CC(=O)Nc1ccc(S(=O)(=O)N2CCC(c3nnnn3-c3ccccc3)CC2)cc1 | – | inactive: 9.2%
Cc1nc2ccccc2n2c(O)c(CC(=O)O)cc12 | – | inactive: 0.589%
COc1ccc(N(CC(=O)NCc2cccnc2)S(=O)(=O)c2c(C)nn(C)c2C)cc1 | inconclusive [inhibitor, full curve, poor fit] | –
CCCCCCn1cnc2c(c1=O)c1nc3ccccc3nc1n2Cc1cccs1 | inconclusive [inhibitor, full curve, poor fit] | –
CCOc1ccc(NC(=S)N2CCC(NC(=O)c3ccco3)CC2)cc1 | inconclusive [inhibitor, full curve, poor fit] | –
CCOc1ccc(NC(=O)CC2C(=O)N(c3ccc(C)cc3)C(=O)N2CCC2=CCCCC2)cc1 (centres undefined) | – | inactive: 9.94%
CCCNC(=O)COC(=O)C1CCN(S(=O)(=O)c2ccc3c(c2)OCCO3)CC1 | inconclusive [inhibitor, full curve, poor fit] | –
Nc1nonc1-c1nc2ccccc2n1Cc1cccc(Cl)c1 | – | inactive: -1%
Cc1noc(C)c1C(=O)N1CCN(C(=O)c2sc3cc(Cl)ccc3c2Cl)CC1 | inconclusive [inhibitor, partial curve] | –
NC(=O)NOCc1ccccc1 | – | inactive: 3.8%
C=CCN(CC=C)S(=O)(=O)c1ccc2nc(NC(=O)C(C)C)sc2c1 | inconclusive [inhibitor, partial curve] | –
